Measured values taken from the supplement of paper PMC10338343.
± gives the standard deviation. Over roughly 5,500 sequences, “pre-steady-state target cleavage rate” has its median near 0.1; the highest 2% begin near 0.64. Only a part is listed here, and it is no random draw.

These sequences were tested on MIWI (PIWIL1) piRISC loaded with piRNA #2 (30 nt) (assay: pre-steady-state target cleavage rate (min^-1); MIWI and MILI are mouse PIWI proteins and EfPiwi is from a freshwater sponge; tags in brackets are library labels; higher = faster piRNA-guided slicing of the target). Settings: guide: piRNA #2 5'p-UUAGGUAACCCAGUAGAUCCAGAGGAAUUC; auxiliary factor: 500 nM mouse GTSF1.
In short: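 Active affinity-purified piRISC carrying one synthetic guide (1 nM) was mixed with a transcribed, DNA-blocked target RNA library […] in HEPES–potassium acetate buffer at 33 °C for 0–8 or 0–960 min, with or without 500 nM GTSF1 partner protein. Uncleaved targets were then sequenced and normalised to depth and to weakly complementary targets. Three trials were pooled, and k3 was capped at 0.0001 min^-1. A burst-and-steady-state fit was applied to obtain the pre-steady-state cleavage rate.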

Going from CAAUUGCUCUCGAUCUACUGGGUUACCUAA to GAAAUGCUCUGGAUCUACUGGGUUACCUAA, the “pre-steady-state target cleavage rate” value falls from 0.522 ± 0.043 to 0.0468 ± 0.018.

Going from CUUAAGGUCUGGAUCUACUGCGUUACGUAA to CUUAAGGAGUGGAUGCUACUGGGUUACCUAA, the “pre-steady-state target cleavage rate” value falls from 0.311 ± 0.045 to 0.00794 ± 0.0076.

Compared with CUUAACCUGUGGAUCUACUGGCUUACCUAA, CUUUUCCUCUGCAUCUACUGGGUUACCAAA is higher in “pre-steady-state target cleavage rate” value: 0.0457 ± 0.013 for the first, 0.254 ± 0.043 for the second.

First: GAAUUCGUCUGGAUCUACUGGCUUACCUAA
Second: CUAUUCCUCUGGUUCUACAGGGUUACCUAA
The “pre-steady-state target cleavage rate” value of the first is lower: 0.111 ± 0.037 for the first, 0.355 ± 0.032 for the second.

First: CUUAUCCUGUGGAUCUACUGCGUUACCUAA
Second: CUUAAGGUCUGGAUCUACAGCGUUACCUAA
The “pre-steady-state target cleavage rate” value of the first is higher: 0.33 ± 0.066 for the first, 0.0335 ± 0.0059 for the second.

CUUAACCACUGGAUCUUCUGGGUUACCUAA and CUUAUCCUCUGGAACUUCUGGGUUACCUAA are within error of each other in “pre-steady-state target cleavage rate” value: 0.277 ± 0.032 for the first, 0.288 ± 0.028 for the second.

Compared with CUAUACCUCUGGAUCUACUCGGUUACCUAA, CUUAACCUCUUGAUCUACUGGGUUACCUAA is higher in “pre-steady-state target cleavage rate” value: 0.105 ± 0.013 for the first, 0.421 ± 0.026 for the second.

Going from GAAUUCCUGUGGAUCUACAGGGUUACCUAA to CUUAACCACUGGAACUACUGGGUUACCUAA, the “pre-steady-state target cleavage rate” value falls from 0.428 ± 0.026 to 0.292 ± 0.025.

Going from CUUUUCGUCUGGAUCUACUCGGUUACCUAA to GAAUUCCUCUCGAUCUACUGGGUUAGCUAA, the “pre-steady-state target cleavage rate” value rises from 0.0353 ± 0.018 to 0.237 ± 0.052.

First: CUUUUCCACUGGAUCUACUGGGUUACGUAA
Second: CUAUUACUCUGGAUCUACUGGGUUACCUAA
The “pre-steady-state target cleavage rate” value of the first is higher: 0.505 ± 0.053 for the first, 0.107 ± 0.025 for the second.

CAAUUCCUCUGGAUCUUCUGGGUUACCAAA and GAAUUCCUCAGGAUCUAGUGGGUUACCUAA are within error of each other in “pre-steady-state target cleavage rate” value: 0.302 ± 0.065 for the first, 0.264 ± 0.029 for the second.

Going from CUUAAGCUCUGGAUGUACUGGCUUACCUAA to CUUAUCCUCUGGAACUACUGGGUUAGCUAA, the “pre-steady-state target cleavage rate” value rises from 0.0718 ± 0.014 to 0.223 ± 0.027.

“CUUAACCUCUGGAUCUACUGGGUUACCUAG [g2:g25:cont:t1G]” and GAAUUCGUCUGGAUCAACUGGGUUACCUAA are within error of each other in “pre-steady-state target cleavage rate” value: 0.23 ± 0.054 for the first, 0.236 ± 0.041 for the second.

Compared with CUUAAGGAGUGGAUCUACUGGGUCACCUAA, CAAUUCCUCUGGUUCUUCUGGGUUACCUAA is higher in “pre-steady-state target cleavage rate” value: 0.094 ± 0.018 for the first, 0.491 ± 0.054 for the second.

Going from CUAUUCCUCUGGAUCUACUGGUUACCUAA to CUUAAGGAGACCAUCUACUCGGUUAGCUAA, the “pre-steady-state target cleavage rate” value falls from 0.104 ± 0.026 to under 0.0001.

CUAUUCCUCUGGAACUACUGGGUUACCUUA and CUUAUCCUCUGGAUCUACUGGGAUACCUUA are within error of each other in “pre-steady-state target cleavage rate” value: 0.238 ± 0.037 for the first, 0.291 ± 0.066 for the second.

CUUAACGCUCUGGAUCUACUGGGUUACCUAA and CUUAUCGCUCUGGAUCUACUGGGUUACCUAA are within error of each other in “pre-steady-state target cleavage rate” value: 0.091 ± 0.011 for the first, 0.0755 ± 0.011 for the second.

Compared with CUUAACCUCUGGAUUCUACUGGGUUACCUAA, CUUAUCCUCUGGAUCUACUGCGUAACCUAA is higher in “pre-steady-state target cleavage rate” value: 0.122 ± 0.021 for the first, 0.203 ± 0.047 for the second.

Compared with CUUAAGGAGUGGAUGUACUGGGUUUCCUAA, CUUAUGCUCUGGAUCUACUGGCUUACCUAA is higher in “pre-steady-state target cleavage rate” value: 0.00484 ± 0.0041 for the first, 0.0508 ± 0.0081 for the second.

Going from GAAUUCCUCUGGAUCUAUGGGUUACCUAA to CUUUUCCUCUGGAACUACAGGGUUACCUAA, the “pre-steady-state target cleavage rate” value rises from 0.0103 ± 0.0032 to 0.382 ± 0.033.

Going from CUUAUCCUCUGCAUCAACUGGGUUACCUAA to CUUAUCCUGUGGAUCUACUGGGUAACCUAA, the “pre-steady-state target cleavage rate” value falls from 0.322 ± 0.025 to 0.133 ± 0.034.

First: GUAUUCCUCUCGAUCUACUGGGUUACCUAA
Second: CUUAAGGAGUGGAUCUACAGCGUUACCUAA
The “pre-steady-state target cleavage rate” value of the first is higher: 0.193 ± 0.044 for the first, 0.00429 ± 0.0025 for the second.

First: CUUUUCCUCUCGAUCUACUGGCUUACCUAA
Second: CUUAAGCUCUGGAUCUACUGGCUUUCCUAA
The “pre-steady-state target cleavage rate” value of the first is higher: 0.201 ± 0.016 for the first, 0.0162 ± 0.0083 for the second.

First: GAAUUCCUCUGGAACUACUGGGUAACCUAA
Second: CUUAAGCUCUGGUUCUACUGGGUUUCCUAA
The “pre-steady-state target cleavage rate” value of the first is higher: 0.234 ± 0.038 for the first, 0.0607 ± 0.015 for the second.

First: CAAUUCCUCUGGAUGUACUGGGUUAGCUAA
Second: GAAUUCCUCUGGAUCUACCGGGUUACCUAA
The “pre-steady-state target cleavage rate” value of the first is higher: 0.299 ± 0.038 for the first, 0.096 ± 0.012 for the second.

Compared with “CAAUUCCUCUGGAUCUACUGGGUUACCUAG [g2:g29:cont:t1G]”, CUUAUCCUCUGGAUCAACUGGGUAACCUAA is lower in “pre-steady-state target cleavage rate” value: 0.539 ± 0.071 for the first, 0.117 ± 0.024 for the second.

Going from CUUAAGCAGAGGAUCUACUGGGUUACCUAA to CUUAAGGACUGGAUCUACUGGGUUACAUAA, the “pre-steady-state target cleavage rate” value rises from 0.0315 ± 0.0087 to 0.432 ± 0.083.

Compared with CUAUUCCUCUGGAUCUACUCGGUUUCCUAA, GAAUUGCUCUGGAUCUACUCGGUUACCUAA is lower in “pre-steady-state target cleavage rate” value: 0.0443 ± 0.016 for the first, 0.0184 ± 0.0089 for the second.

Compared with CUUAAGCUCUGGAUCUACUGGGAUUCCUAA, CUUAUCCUCUGGAUGUACUGGCUUACCUAA is higher in “pre-steady-state target cleavage rate” value: 0.0152 ± 0.0052 for the first, 0.0994 ± 0.027 for the second.

First: CUUUUCCUCUGGAUCUACUGGGUUACCCAA
Second: CUUAAGGUCUGGAUGUACUGGGUUACCAAA
The “pre-steady-state target cleavage rate” value of the first is higher: 0.234 ± 0.071 for the first, 0.0658 ± 0.038 for the second.

First: CUUAAGGUCUCCAUCUACUGGGUUACCUAA
Second: CUAUUCCUCUGGUUCUACUGCGUUACCUAA
The “pre-steady-state target cleavage rate” value of the first is lower: 0.00681 ± 0.0025 for the first, 0.389 ± 0.036 for the second.

Compared with CUUAAGGAGUGGAUCUACUGGGUUACCUGA, GAAUUCCUCAGGAUCUACUCGGUUACCUAA is higher in “pre-steady-state target cleavage rate” value: 0.0407 ± 0.012 for the first, 0.134 ± 0.02 for the second.

Compared with CUUAUCCUCUGGAAUCUACUGGGUUACCUAA, CUUAAGGAGUUGGAUCUACUGGGUUACCUAA is lower in “pre-steady-state target cleavage rate” value: 0.337 ± 0.037 for the first, 0.133 ± 0.016 for the second.

CAAUUCCUCUGGAGUCUACUGGGUUACCUAA and CAUAUCCUCUGGAUCUACUGGGUUACCUAA are within error of each other in “pre-steady-state target cleavage rate” value: 0.525 ± 0.048 for the first, 0.528 ± 0.071 for the second.

Compared with CUUAUCCUCUGGAUCUACCGGGUUACCUAA, CAAUUGCUCUGGAUCAACUGGGUUACCUAA is higher in “pre-steady-state target cleavage rate” value: 0.156 ± 0.018 for the first, 0.293 ± 0.036 for the second.

Compared with CUUAAGGUCUGGAUCUACUGGCUUACGUAA, CAAUUCCAGAGGAUCUACUGGGUUACCUAA is higher in “pre-steady-state target cleavage rate” value: 0.0447 ± 0.023 for the first, 0.215 ± 0.03 for the second.

“CUUAAGCUCUGGAUCUACUGGGUUAGGAUA [g6:g24:cont:t1A]” and CUUAAGGAGACCUACUACUGGGUUACAUAA are within error of each other in “pre-steady-state target cleavage rate” value: 0.0163 ± 0.011 for the first, 0.0136 ± 0.0046 for the second.

First: GAAUUCCACUGGAUCUACUGGGAUACCUAA
Second: CUUAACCUCUGGAGUCUACUGGGUUACCUAA
The “pre-steady-state target cleavage rate” value of the first is higher: 0.343 ± 0.066 for the first, 0.22 ± 0.028 for the second.

GUAUUCCUCUGGAUCUACUGGCUUACCUAA and GUAUUCCUCUGGAUCUACUGGGUUACCUUA are within error of each other in “pre-steady-state target cleavage rate” value: 0.0508 ± 0.014 for the first, 0.0945 ± 0.041 for the second.

CUUUUCCUCUGGAUCUACUGGCUUACCAAA and CUUAACCUCUGGAUCUUCAGGGUUACCUAA are within error of each other in “pre-steady-state target cleavage rate” value: 0.08 ± 0.02 for the first, 0.112 ± 0.014 for the second.

First: CAAUUCCUCUGGAUCUACUGCGAUACCUAA
Second: GAAUUCCUCUGGAUCUACUGCGUUACCUAA
The “pre-steady-state target cleavage rate” value of the first is lower: 0.235 ± 0.045 for the first, 0.469 ± 0.056 for the second.

Going from CAAUUCCUCUGGAUCUAGUGGGUUACCUUA to CUUAAGGAGACGAUCUACAGCGUUACCUAA, the “pre-steady-state target cleavage rate” value falls from 0.138 ± 0.026 to 0.0051 ± 0.0033.

Compared with CUAUUCCUCUGCUUCUACUGGGUUACCUAA, CUUAUGCUCUGGAUCAACUGGGUUACCUAA is lower in “pre-steady-state target cleavage rate” value: 0.516 ± 0.04 for the first, 0.102 ± 0.011 for the second.

First: CUUAAGCUCUGGAACUACUGGGUAACCUAA
Second: GAAUUCCUCUGCAUCUAGUGGGUUACCUAA
The “pre-steady-state target cleavage rate” value of the first is lower: 0.044 ± 0.011 for the first, 0.199 ± 0.02 for the second.

First: CUUAAGCUGUGGAUCUAGUGGGUUACCUAA
Second: GAAUUCCUCUGCAUCUACUGGGUAACCUAA
The “pre-steady-state target cleavage rate” value of the first is lower: 0.0784 ± 0.017 for the first, 0.21 ± 0.032 for the second.

For CUUAACCUCAGGUUCUACUGGGUUACCUAA, the “pre-steady-state target cleavage rate” value was 0.448 ± 0.05.
